Drawing on publication PMC12136788, this text covers binding signal for 22 molecules.

T1: UNK ZnF1-3 (human, UniProt Q9C0B0 31-174)
T1 sequence: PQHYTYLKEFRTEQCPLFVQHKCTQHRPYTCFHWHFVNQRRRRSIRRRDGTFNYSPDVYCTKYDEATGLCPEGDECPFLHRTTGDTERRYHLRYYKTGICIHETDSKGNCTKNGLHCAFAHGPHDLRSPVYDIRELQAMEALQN

B1: chr18:56819859:56819860:+_ENSG00000166562_ENST00000588875|hu_mus|hu_hu_hu_mus_True|8_108 (ssRNA)
RNA: GGGAGUUCUACAGUCCGACGAUCAACUUUGAUUACUCUGUGAACUAUCGGAAUGUCUCUUCCUUCAACCUUAAAAACAACUAUUUCACCAGCUCUGAUGGGGUCCUCCCGGAAAUUCGUGAGGAACAGGAGGUCUCCUCUGUGCAACAGAGGAUUGAGCAUCA
B2: chr3:121486967:121486968:-_ENSMUSG00000028127_ENSMUST00000029770|mus_hu|motif|central (ssRNA)
RNA: GGGAGUUCUACAGUCCGACGAUCUCCAAUUGCACUCGUUAACUUAAAGAUAUACAAAACUAUGUCUAAAAAUGGCUUACGGAGAUUUGAAUACAGAUCGACUACACUGUUACAAAAUUUUUCUACAUCUUGUGUAAGCAGCUGCAACAGAGGAUUGAGCAUCA
B3: 107755505_107755625_722_5pUTR_ENSMUSG00000032582_ENSMUST00000035201|mouse|control|control (ssRNA)
RNA: GGGAGUUCUACAGUCCGACGAUCAGGUCCCUCCCCUCCUUGAUAGUCACCAUGUGGUCCAUCUCUACCUCCAUAGCUGAAAGAAUGCUCCUCUACAUUUGCAAAGGGAGGUCCUGAAUGCCCCUGGAAAUCAAAGGGAAGUGACAACAGAGGAUUGAGCAUCA
B4: chr1:39494564:39494565:+_ENSG00000168653_ENST00000372967|hu_hu|hu_hu_hu_mus_True|18_48 (ssRNA)
RNA: GGGAGUUCUACAGUCCGACGAUCAUGCAUUCGCCUCAUCGUUUUGUACCGAAGCAAGCACUCUUCGAAGUCAUCGAACUCUAUCUUGCACUCUUUCUUCGCCCGGGUCCCACCGAUUCCAUGUGCACACUCUAUCCACUCUUUCAACAGAGGAUUGAGCAUCA
B5: chr10:70731730:70731731:+_ENSG00000165732_ENST00000354185|hu_hu|FALSE|FALSE (ssRNA)
RNA: GGGAGUUCUACAGUCCGACGAUCAACCUCAGGGAUGUCUAACCCACGUGCAGCAACAUUGGUUGCCACCAAAACUCCAAAACUACCAUUUCUAAAACCUUUCAGGGUGAUUUCCCUUUGCUUCUGUGGAAUGUCUCCAUGCAACAACAGAGGAUUGAGCAUCA
B6: chr4:83978449:83978450:+_ENSG00000138663_ENST00000264389|hu_hu|motif|central (ssRNA)
RNA: GGGAGUUCUACAGUCCGACGAUCUAUUGUCUUGUAAGAGAGCUCAUUGUACCUUUGUGCAGCUUCAAUGAAUUUUCUUCGGUAAUCAAGAACACGUGCAUAGCAUACCUUAUAAUGUAUCUGUAAUUGUUCAUUGGUUGAUUCCAACAGAGGAUUGAGCAUCA
B7: chr16:57473197:57473198:-_ENSG00000005194_ENST00000569370|hu_mus|motif|central (ssRNA)
RNA: GGGAGUUCUACAGUCCGACGAUCGAUCCGGGCCAUCUCAGCCAGAACCUCAGCACUGUGCAGAGAGGUGCUUCCUGGGACGGCACCCGACAGAAUGACAUCGAAGCUGGAUUCCUUAUGCGAAGACUGCAACAGCUGGGUGACCAACAGAGGAUUGAGCAUCA
B8: chr8:117878989:117878990:-_ENSG00000164754_ENST00000297338|hu_hu|hu_hu_hu_mus_True|38_108 (ssRNA)
RNA: GGGAGUUCUACAGUCCGACGAUCCCAGAGGCCCUCUUUUACUGAGGACAAAAUGUGCGUAGAACAUUUUUCUUAUUUGCUAUGAAAUAAGAAGAAAACCUUGCUCUGGCGGGGAGCCGGGAGGGGUGGGUGGCCCGGGGAGGGCAACAGAGGAUUGAGCAUCA
B9: chr7:7679991:7679992:-_ENSG00000106399_ENST00000396682|hu_hu|hu_hu_hu_mus_False|8_38 (ssRNA)
RNA: GGGAGUUCUACAGUCCGACGAUCUGGGAUGAAUCUUUUCCAGCUUCCCCACGAAGCACACGGGCCGGUCGAUAUACUGUGGUAACAUGCUGGCGUUGAUGCGCGACUUGGGGAGCUGCAUUAUGUCCACCAUGAUUCUGCCGCCAACAGAGGAUUGAGCAUCA
B10: chr9:21312366:21312367:-_ENSMUSG00000032180_ENSMUST00000034698|mus_mus|motif|central (ssRNA)
RNA: GGGAGUUCUACAGUCCGACGAUCAGGGUGGGGGGCAGCACCACAGCUUCACCCCAUCCUGAUAGCUGCAAGACUGAAGCGGAGGCACGAUUUCAGGAGAAAGCCAGGGCAUCCAAGAGCAGUGUCCCCACACUGCUGCGCCCACAACAGAGGAUUGAGCAUCA
B11: chr4:25749455:25749456:-_ENSG00000091490_ENST00000264868|hu_hu|hu_hu_hu_mus_False|8_8 (ssRNA)
RNA: GGGAGUUCUACAGUCCGACGAUCGCACUAUGACCUCUAGAAAAAUCCACAGGGGGAAAAAAUGUAAACCAAUGUACAAUGUUAUCGCCUUCCCUGUGUGUGGAGUGUUUGUCUCAAGGCUCCUUCUUGCCUUAUAAUUUGGGACAACAGAGGAUUGAGCAUCA
B12: 123813400_123815043_1116_CDS_ENSG00000139697_ENST00000420886|human|control|control (ssRNA)
RNA: GGGAGUUCUACAGUCCGACGAUCCACACUCCCAUUAUGUUUGGAAGAAAUUUUUCCGUAUUUAAACUUAUUUAACGAAUGAACCAAAAUGUUUUUUGCUCCAAUAUCCCUUAAAUCUCUUUCAGCAUCAUACUUUAAGUCAUUCAACAGAGGAUUGAGCAUCA
B13: chr4:40680069:40680070:+_ENSMUSG00000028410_ENSMUST00000030118|mus_mus|motif|central (ssRNA)
RNA: GGGAGUUCUACAGUCCGACGAUCAGUCAGAGCUUUUAUAUUUGUGUUUAUUCUUCAUUUAACUUUUUUUAAAACACGGCGGUAGUUGAAUAUUAAAACAAAAACAAUAGCCAAGUAGUGAGCUUAUUAUGAUUACAGUCCUUCCAACAGAGGAUUGAGCAUCA
B14: chr12:73895003:73895004:+_ENSMUSG00000021096_ENSMUST00000021514|mus_mus|FALSE|FALSE (ssRNA)
RNA: GGGAGUUCUACAGUCCGACGAUCUUCACUGAUAGUGAUUUUAAAGCAGUUCAUAAUUAAAUAUGAGCACUUUGUACAAGGACAAUUACACUUUACAAAAACCAAAAUCAUACAACAAAAAUUGCUGGAGUCUGAUUUACAACACAACAGAGGAUUGAGCAUCA
B15: chr11:4127340:4127341:+_ENSG00000167325_ENST00000300738|hu_mus|hu_hu_hu_mus_False|28_28 (ssRNA)
RNA: GGGAGUUCUACAGUCCGACGAUCGGCAUAGUCAGGGUGCUUCGUGGUCAAGGUCGCGGCUGUCUCAGCAGCCAGGGUGUCCAGUUCCACUGUGGUGACCCCACUAUACAAGCCUUGGAUUACUUUCAUGGUGAUCUGAGCAGGCAACAGAGGAUUGAGCAUCA
B16: chr19:7302888:7302889:-_ENSMUSG00000024764_ENSMUST00000025675|mus_hu|FALSE|FALSE (ssRNA)
RNA: GGGAGUUCUACAGUCCGACGAUCAAUUUCAAAUUGCAACGCUUCUCUGAAGAACUGGUAGGCACCAUGAUUGUGUUUAAAUACUGUUAACAUAACCUUCUUCAUCUGUGUGCUGUUGGCCAUGAGCUGCAGGAUCUGUAUGAGCAACAGAGGAUUGAGCAUCA
B17: chr4:128759998:128759999:+_ENSMUSG00000028793_ENSMUST00000168461|mus_hu|motif|central (ssRNA)
RNA: GGGAGUUCUACAGUCCGACGAUCUGCACCAAGACUGGCUGUGUCUUUGGGGAAAAUUUCCUUUUGGACAUCGGCUUGAACUUCGGACCUGCUAUAUUUUCCCUUGCCACUGGAGAGAAUGCCGCCACUCAGCGUGCCCCCUGACAACAGAGGAUUGAGCAUCA
B18: chr4:25749455:25749456:-_ENSG00000091490_ENST00000264868|hu_hu|hu_hu_hu_mus_False|18_68 (ssRNA)
RNA: GGGAGUUCUACAGUCCGACGAUCGCACUAUGACCUCUAGAAAAAUCCACAGGGGGAAAAAAUGUAAACCAAUUUACAAUGUUAUCGCCUUCCCUGUGUGUGGAGUGUUUGUCUCAAUAUUUCAAGGAGCUGCUGGAUUUGGGACAACAGAGGAUUGAGCAUCA
B19: chr2:158593201:158593202:-_ENSG00000115170_ENST00000434821|hu_mus|FALSE|FALSE (ssRNA)
RNA: GGGAGUUCUACAGUCCGACGAUCUGAAAUCUUUGCUUCUAAAUCAGUAAUAUAUCGGGUGGUGUUGCAUGGGUAAUGGCUAAAUAUGUUCUGCAUACGAACUGAAAAGAAAGUUACAGUCUACACACAUUUAAAAAAAAAAAUCAACAGAGGAUUGAGCAUCA
B20: chr2:198351390:198351391:-_ENSG00000144381_ENST00000345042|hu_hu|hu_hu_hu_mus_False|18_68 (ssRNA)
RNA: GGGAGUUCUACAGUCCGACGAUCUCAUUCCCACCCUCCACAGAAAGGCUGCUUCUGAACUCUCAUGGUGGUGGCAAGCGCUACAGUCCUGAUGCUCACAGAACAGUAGAGAUGCCUCCUCAGUGAUAGUUGAAAGCAGGACACCAACAGAGGAUUGAGCAUCA
B21: chrX:71549400:71549401:+_ENSMUSG00000019087_ENSMUST00000019231|mus_hu|mus_mus_mus_hu_False|28_78 (ssRNA)
RNA: GGGAGUUCUACAGUCCGACGAUCGCAGUAGGAAGAGGGAAGCUCUUCAGUCCAGUGGUCACAAAACUGGGAAAGCAACAACACGGACACCGUCCCACCCUCAACCCUCUCAGGUGUACAGGGUCACACAAUCUGGGUCAAAGACAACAGAGGAUUGAGCAUCA
B22: 56890377_56890497_5338_3pUTR_ENSMUSG00000055296_ENSMUST00000068792|mouse|control|control (ssRNA)
RNA: GGGAGUUCUACAGUCCGACGAUCGUCUCAUGGUGGGCAGGGGCACGAUUCUGCCAGCUGAAGGUCGUUUACCUUUGGAAUCCGAGGGUCUGCUGAGAGCCCUGAGGGGGGUGGAGGCUGCUGCUGAUUCCUGCUGCUGCGUGUCAACAGAGGAUUGAGCAUCA

Some of the results follow.

In this test the target is T1, UNK ZnF1-3. The test can be described thus: nsRBNS (natural sequence RNA bind-n-seq); RBNS binding buffer (assumed for nsRBNS): 25 mM Tris pH 7.5, 150 mM KCl, 3 mM MgCl2, 0.01% Triton X-100, 500 ug/ml BSA, 20 U/ml SUPERase-In, 4 C; UNK is unkempt and MSI1 is Musashi-1; names of the RNAs are library labels; protein concentration not given here; high values mean tight binding.
The molecule B1 registered a binding signal of 0.671 enrichment R. Regarding B2, the binding signal stood at 0.679 enrichment R.

For the molecule B3, the binding signal amounted to 1.18 enrichment R. B4 came in with a binding signal of 0.667 enrichment R. The same measure for B5: 0.951 enrichment R; for B6: 0.664 enrichment R. B7 had a binding signal of 0.995 enrichment R. The same measure for B8: 1.4 enrichment R; for B9: 0.394 enrichment R; for B10: 1.09 enrichment R. Molecule B11 came in with a binding signal of 0.867 enrichment R. B12 displayed a binding signal of 0.685 enrichment R. B13 returned a binding signal of 1.4 enrichment R. For B14, the binding signal came to 0.521 enrichment R. B15 yielded a binding signal of 1.01 enrichment R. B16 displayed a binding signal of 1.12 enrichment R. As for B17, the binding signal was 1.03 enrichment R. The same measure for B18: 1.22 enrichment R; for B19: 1.57 enrichment R; for B20: 0.954 enrichment R. Take B21: the binding signal stood at 1.5 enrichment R.

In the case of B22, the binding signal is 1.28 enrichment R.
